# Assay results: ChEMBL document CHEMBL5606458, “ASAP - ZIKV NS2B-NS3 protease fluorescence single point” (2024)
# The whole screen tested about 2,700 compounds, of which about 160 (5.9%) showed an effect of 50% or more. The list shows a part of the results.
# Molecular target: Nonstructural protein 3 (Zika virus) (UniProt A0A024AXB9)
# [1] = PRVABC59, Concentration 50.0 uM, Number of replicates 1.0
# [2] = PRVABC59, Concentration 15.0 uM, Number of replicates 1.0
# Sequence of UniProt A0A024AXB9 (A0A024AXB9 as listed by the source): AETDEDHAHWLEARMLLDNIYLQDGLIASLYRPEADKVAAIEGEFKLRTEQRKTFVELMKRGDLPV
structure (smiles),measurement,setting,value
O=Cc1ccc(N2CCC(C(=O)N3CCC(Cc4ccccc4)CC3)CC2)cc1,inhibition,[1],24.7%
CCN(CCOc1ccccc1C)C(=O)c1cc(Cl)ccc1NS(=O)(=O)c1ccc(Oc2ccccc2Cl)cc1,inhibition,[2],17.6%
Cn1cnc2[nH]c(C(=O)N3CC[C@H](c4c[nH]c5ccccc45)C3)cc21,inhibition,"PRVABC59, Concentration 49.5 uM, Number of replicates 2.0, Standard deviation 1.7141597019957866 %",-4.9%
same,inhibition,"PRVABC59, Concentration 99.01 uM, Number of replicates 2.0, Standard deviation 3.0246149725930045 %",-5%
same,inhibition,"PRVABC59, Concentration 198.0 uM, Number of replicates 2.0, Standard deviation 3.2275240626655477 %",-4.2%
COc1ccc(S(=O)(=O)N2CCC(C(=O)Nc3nc4ccccc4s3)CC2)cc1,inhibition,"PRVABC59, Concentration 49.5 uM, Number of replicates 2.0, Standard deviation 3.281212488466362 %",4.02%
same,inhibition,"PRVABC59, Concentration 99.01 uM, Number of replicates 2.0, Standard deviation 0.8753020409515783 %",5.17%
same,inhibition,"PRVABC59, Concentration 198.0 uM, Number of replicates 2.0, Standard deviation 6.6794445217114635 %",7.79%
N#Cc1ccc(NC(=O)c2cc(Cl)ccc2NS(=O)(=O)c2ccc(Oc3ccccc3Cl)cc2)cc1Br,inhibition,[2],27.9%
O=Cc1ccc(N2CCC(C(=O)NC3CCN(CC4CCOCC4)CC3)CC2)cc1,inhibition,[1],26%
O=C(O)c1cnn(C2CCN(Cc3c[nH]nc3-c3ccccc3)CC2)n1,inhibition,"PRVABC59, Concentration 49.5 uM, Number of replicates 2.0, Standard deviation 0.21821479186625958 %",0.377%
same,inhibition,"PRVABC59, Concentration 99.01 uM, Number of replicates 2.0, Standard deviation 0.606152097773615 %",2.99%
same,inhibition,"PRVABC59, Concentration 198.0 uM, Number of replicates 2.0, Standard deviation 0.6728285807052433 %",8.16%
O=Cc1ccc(N2CCC(C(=O)N3CCN(Cc4ccc(Cl)nc4)CC3)CC2)cc1,inhibition,[1],18%
Cc1c(C(=O)NCc2ccc(Cl)cc2OCCO)ccc(O)c1NC(=O)c1ccncc1F,inhibition,"PRVABC59, Concentration 49.5 uM, Number of replicates 2.0, Standard deviation 0.8627565362668407 %",-0.707%
same,inhibition,"PRVABC59, Concentration 99.01 uM, Number of replicates 2.0, Standard deviation 1.0526843021676198 %",1.68%
same,inhibition,"PRVABC59, Concentration 198.0 uM, Number of replicates 2.0, Standard deviation 0.8566950502709888 %",5.54%
Cc1cc(CO)c2cccc(NC(=O)[C@@H](N)CCN)c2n1,inhibition,"PRVABC59, Concentration 49.95 uM, Number of replicates 2.0, Standard deviation 10.156724992387474 %",7.81%
same,inhibition,"PRVABC59, Concentration 99.9 uM, Number of replicates 2.0, Standard deviation 27.740304464442595 %",6.58%
COCCN(Cc1cccc2ccccc12)C(=O)C1CCN(c2ccc(C=O)cc2)CC1,inhibition,[1],16.9%
O=C(N[C@H](c1ccccc1)[C@@H](O)c1ccccc1)c1cc(Cl)ccc1NS(=O)(=O)c1ccc(Oc2ccccc2Cl)cc1,inhibition,[2],45.7%
CNC(=O)[C@H]1CN(S(=O)(=O)c2ccc(Oc3ccccc3Cl)cc2)CCO1,inhibition,"PRVABC59, Concentration 49.5 uM, Number of replicates 2.0, Standard deviation 3.5847288244061386 %",-2.94%
same,inhibition,"PRVABC59, Concentration 99.01 uM, Number of replicates 2.0, Standard deviation 3.726342509357258 %",-2.14%
same,inhibition,"PRVABC59, Concentration 198.0 uM, Number of replicates 2.0, Standard deviation 2.179159896763992 %",-2.94%
O=Cc1ccc(N2CCC(C(=O)Nc3cnc(Cl)c(Br)c3)CC2)cc1,inhibition,[1],23.4%
CC(C)CCN(CCC(C)C)C(=O)c1cc(Cl)ccc1NS(=O)(=O)c1ccc(Oc2ccccc2Cl)cc1,inhibition,[2],18.8%
Cc1nccc(Cn2cc(C3CCNCC3)c(C)n2)n1,inhibition,"PRVABC59, Concentration 49.5 uM, Number of replicates 2.0, Standard deviation 1.726112379646082 %",-6.27%
same,inhibition,"PRVABC59, Concentration 99.01 uM, Number of replicates 2.0, Standard deviation 0.17396432038920195 %",-6.67%
same,inhibition,"PRVABC59, Concentration 198.0 uM, Number of replicates 2.0, Standard deviation 5.707961096528205 %",-2.77%
O=C(c1cc(Cl)ccc1NS(=O)(=O)c1ccc(Oc2ccccc2Cl)cc1)N1C[C@@H]2C[C@H]1CN2Cc1ccccc1,inhibition,[2],7.15%
O=C(Cc1cnc[nH]1)NC1CCN(C(=O)c2cccc3[nH]ncc23)CC1,inhibition,"PRVABC59, Concentration 49.5 uM, Number of replicates 2.0, Standard deviation 0.3838964241228128 %",-1.78%
same,inhibition,"PRVABC59, Concentration 99.01 uM, Number of replicates 2.0, Standard deviation 0.6526237608507574 %",-1.17%
same,inhibition,"PRVABC59, Concentration 198.0 uM, Number of replicates 2.0, Standard deviation 1.0930943422716526 %",-1.05%
O=C(NCCc1ccc(OC(F)(F)F)cc1)c1cc(Cl)ccc1NS(=O)(=O)c1ccc(Oc2ccccc2Cl)cc1,inhibition,[2],27.7%
O=C(Nc1cccc(N2CCOCC2)c1)c1cc(Cl)ccc1NS(=O)(=O)c1ccc(Oc2ccccc2Cl)cc1,inhibition,[2],66.3%
O=C(N[C@@H]1[C@@H](O)[C@H](O)[C@@H](CO)O[C@H]1O)c1cc(Cl)ccc1NS(=O)(=O)c1ccc(Oc2ccccc2Cl)cc1,inhibition,[2],4.78%
CNC(=O)C1(C)CCN(C(=O)c2cc(Cl)ccc2NS(=O)(=O)c2ccc(Oc3ccccc3Cl)cc2)CC1,inhibition,[2],-2.63%
COc1cc(COc2ccnc3ccnn23)nc(N2CCNCC2)n1,inhibition,"PRVABC59, Concentration 49.5 uM, Number of replicates 2.0, Standard deviation 0.8016003105759115 %",-1.08%
same,inhibition,"PRVABC59, Concentration 99.01 uM, Number of replicates 2.0, Standard deviation 0.5716839625194965 %",-0.798%
same,inhibition,"PRVABC59, Concentration 198.0 uM, Number of replicates 2.0, Standard deviation 1.3111446876717348 %",1.2%
C[C@H](NC(=O)c1cc(Cl)ccc1NS(=O)(=O)c1ccc(Oc2ccccc2Cl)cc1)c1ccc(Br)cc1,inhibition,[2],37.2%
CN1CCN(c2ccc(CNC(=O)c3cc(Cl)ccc3NS(=O)(=O)c3ccc(Oc4ccccc4Cl)cc3)cc2)CC1,inhibition,[2],12%
O=Cc1ccc(N2CCC(C(=O)N3CCC[C@H](c4nnc5ccccn45)C3)CC2)cc1,inhibition,[1],26.6%
O=C(C(=O)N1CCOCC1)c1c[nH]c2ccccc12,inhibition,"PRVABC59, Concentration 49.5 uM, Number of replicates 2.0, Standard deviation 0.17998600922334743 %",-0.983%
same,inhibition,"PRVABC59, Concentration 99.01 uM, Number of replicates 2.0, Standard deviation 1.1884369831445414 %",0.292%
same,inhibition,"PRVABC59, Concentration 198.0 uM, Number of replicates 2.0, Standard deviation 1.4742969294984674 %",3.1%
Cn1cc(NC(=O)c2ccccc2-c2ccc(C(=O)O)nc2)cn1,inhibition,"PRVABC59, Concentration 49.5 uM, Number of replicates 2.0, Standard deviation 2.4498358087391408 %",-1.15%
same,inhibition,"PRVABC59, Concentration 99.01 uM, Number of replicates 2.0, Standard deviation 1.6656005687321722 %",-0.876%
same,inhibition,"PRVABC59, Concentration 198.0 uM, Number of replicates 2.0, Standard deviation 2.3203289956835937 %",3.27%
Cc1n[nH]cc1-c1ccccc1C(=O)Nc1cnn(C)c1,inhibition,"PRVABC59, Concentration 49.5 uM, Number of replicates 2.0, Standard deviation 3.191399466702898 %",-2.16%
same,inhibition,"PRVABC59, Concentration 99.01 uM, Number of replicates 2.0, Standard deviation 2.5035391492559715 %",-1.69%
same,inhibition,"PRVABC59, Concentration 198.0 uM, Number of replicates 2.0, Standard deviation 2.931238418982876 %",-1.46%
O=Cc1ccc(N2CCC(C(=O)N3CCC4(CC3)CC(=O)c3ccccc3O4)CC2)cc1,inhibition,[1],9.73%
Cc1cnc2ccccc2c1NC(=O)c1cccn(CC(C)C)c1=O,inhibition,"PRVABC59, Concentration 49.5 uM, Number of replicates 2.0, Standard deviation 0.6001524095943922 %",3.52%
same,inhibition,"PRVABC59, Concentration 99.01 uM, Number of replicates 2.0, Standard deviation 0.6796425459976966 %",8.92%
same,inhibition,"PRVABC59, Concentration 198.0 uM, Number of replicates 2.0, Standard deviation 1.709043243173958 %",17.9%
O=Cc1ccc(N2CCC(C(=O)Nc3nnc(Cl)cc3Br)CC2)cc1,inhibition,[1],29%
COc1ccc(CN(C)C(=O)c2cc(Cl)ccc2NS(=O)(=O)c2ccc(Oc3ccccc3Cl)cc2)cc1O,inhibition,[2],18.1%
O=Cc1ccc(N2CCC(C(=O)Nc3ccc(O)cc3[N+](=O)[O-])CC2)cc1,inhibition,[1],38.4%
O=C(O)C1CCN(Cc2c[nH]c3ccccc23)CC1,inhibition,"PRVABC59, Concentration 49.5 uM, Number of replicates 2.0, Standard deviation 0.9943996782429954 %",-2.26%
same,inhibition,"PRVABC59, Concentration 99.01 uM, Number of replicates 2.0, Standard deviation 1.4833948957319987 %",-1.01%
same,inhibition,"PRVABC59, Concentration 198.0 uM, Number of replicates 2.0, Standard deviation 4.1958416694697585 %",-1.44%
C[C@H]1CN(C(=O)OC(C)(C)C)CCN1C(=O)c1cc(Cl)ccc1NS(=O)(=O)c1ccc(Oc2ccccc2Cl)cc1,inhibition,[2],13.5%
O=Cc1ccc(N2CCC(C(=O)NCCOCc3ccccc3)CC2)cc1,inhibition,[1],21.1%
O=C(NC1CN(C(c2ccccc2)c2ccccc2)C1)c1cc(Cl)ccc1NS(=O)(=O)c1ccc(Oc2ccccc2Cl)cc1,inhibition,[2],0.946%
O=C(Nc1c(Br)cncc1[N+](=O)[O-])c1cc(Cl)ccc1NS(=O)(=O)c1ccc(Oc2ccccc2Cl)cc1,inhibition,[2],25.3%
CCOc1ccc(CNC(=O)C2CCN(c3ccc(C=O)cc3)CC2)cc1,inhibition,"PRVABC59, Concentration 10.0 uM, Number of replicates 1.0",4.26%
